According to PMC3245249:
Results are given in words; binding and its absence hold for the method and conditions named. In cells and extracts the contact can be indirect. Some entries that bind do so weakly or less than the wild type. For part of these data: Tags and fused reporters may be left off the sequences shown.

Amino acid sequences for entries named in this document (tags omitted). A change or cut given only in a name is not applied to a line headed by its entry. Residues count along the entry.
UniProt P39081, residues 289-626: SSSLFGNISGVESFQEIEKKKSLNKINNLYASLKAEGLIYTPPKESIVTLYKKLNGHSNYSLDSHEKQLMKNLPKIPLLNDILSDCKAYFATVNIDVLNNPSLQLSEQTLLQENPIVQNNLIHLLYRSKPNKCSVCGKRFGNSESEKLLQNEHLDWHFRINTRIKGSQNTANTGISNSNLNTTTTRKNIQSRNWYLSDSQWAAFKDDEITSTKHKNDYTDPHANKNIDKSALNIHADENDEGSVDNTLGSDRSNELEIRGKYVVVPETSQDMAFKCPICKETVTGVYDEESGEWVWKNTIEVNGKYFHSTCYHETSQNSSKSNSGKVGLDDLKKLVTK

Legend:
GST-Pcf11ΔN288 (yeast) = GST-Pcf11ΔN288 (yeast) (UniProt P39081); test: pull-down; reconstitution of CF IA from heterologously expressed subunits: GST-Pcf11ΔN288 immobilised on glutathione sepharose, His6-Clp1 (wild-type or mutant) and preformed His6-Rna14/Rna15 dimers added; data not shown
ProtA-Clp1 (yeast) = target: T1, ProtA-Clp1 (yeast) (UniProt Q08685); test: co-IP; partial purification of CF IA from yeast by the ProtA tag on Clp1, final high salt wash (1 M KCl); Western blot for Rna15, Pcf11, Clp1 and Rna14 (Fig. 4A)
T1 sequence: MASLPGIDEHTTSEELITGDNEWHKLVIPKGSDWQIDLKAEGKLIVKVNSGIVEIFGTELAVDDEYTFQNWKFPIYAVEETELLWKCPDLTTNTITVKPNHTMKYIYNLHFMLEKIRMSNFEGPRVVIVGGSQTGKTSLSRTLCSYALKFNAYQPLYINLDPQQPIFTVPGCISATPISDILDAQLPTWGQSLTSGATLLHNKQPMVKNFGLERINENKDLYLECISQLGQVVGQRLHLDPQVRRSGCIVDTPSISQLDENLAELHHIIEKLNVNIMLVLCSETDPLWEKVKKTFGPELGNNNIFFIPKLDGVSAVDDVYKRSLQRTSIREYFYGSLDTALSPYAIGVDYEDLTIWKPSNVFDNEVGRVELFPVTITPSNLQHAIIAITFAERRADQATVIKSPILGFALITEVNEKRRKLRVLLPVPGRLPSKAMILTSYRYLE

[1] = target: T2, ProtA-Clp1 K136A T137A (yeast) (UniProt Q08685); test: as above
T2 sequence: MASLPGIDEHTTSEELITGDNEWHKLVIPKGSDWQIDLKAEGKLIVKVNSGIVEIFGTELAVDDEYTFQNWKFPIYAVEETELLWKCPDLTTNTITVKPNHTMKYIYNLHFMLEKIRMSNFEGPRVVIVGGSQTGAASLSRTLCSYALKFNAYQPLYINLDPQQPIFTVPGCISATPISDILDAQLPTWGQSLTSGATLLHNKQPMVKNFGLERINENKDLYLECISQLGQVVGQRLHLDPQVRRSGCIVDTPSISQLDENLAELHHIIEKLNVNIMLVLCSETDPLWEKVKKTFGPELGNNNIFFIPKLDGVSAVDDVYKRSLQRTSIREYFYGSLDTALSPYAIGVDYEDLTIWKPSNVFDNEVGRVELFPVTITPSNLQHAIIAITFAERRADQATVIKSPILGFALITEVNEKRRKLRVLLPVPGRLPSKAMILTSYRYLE

| Binder | binding (GST-Pcf11ΔN288 (yeast)) | binding (ProtA-Clp1 (yeast)) | binding [1] |
| --- | --- | --- | --- |
| His6-Clp1, recombinant, for CF IA reconstitution (protein, UniProt Q08685 1-445) MASLPGIDEHTTSEELITGDNEWHKLVIPKGSDWQIDLKAEGKLIVKVNSGIVEIFGTELAVDDEYTFQNWKFPIYAVEETELLWKCPDLTTNTITVKPNHTMKYIYNLHFMLEKIRMSNFEGPRVVIVGGSQTGKTSLSRTLCSYALKFNAYQPLYINLDPQQPIFTVPGCISATPISDILDAQLPTWGQSLTSGATLLHNKQPMVKNFGLERINENKDLYLECISQLGQVVGQRLHLDPQVRRSGCIVDTPSISQLDENLAELHHIIEKLNVNIMLVLCSETDPLWEKVKKTFGPELGNNNIFFIPKLDGVSAVDDVYKRSLQRTSIREYFYGSLDTALSPYAIGVDYEDLTIWKPSNVFDNEVGRVELFPVTITPSNLQHAIIAITFAERRADQATVIKSPILGFALITEVNEKRRKLRVLLPVPGRLPSKAMILTSYRYLE | binds |  |  |
| Rna14, endogenous in yeast (protein, UniProt P25298 1-677) MSSSTTPDLLYPSADKVAEPSDNIHGDELRLRERIKDNPTNILSYFQLIQYLETQESYAKVREVYEQFHNTFPFYSPAWTLQLKGELARDEFETVEKILAQCLSGKLENNDLSLWSTYLDYIRRKNNLITGGQEARAVIVKAFQLVMQKCAIFEPKSSSFWNEYLNFLEQWKPFNKWEEQQRIDMLREFYKKMLCVPFDNLEKMWNRYTQWEQEINSLTARKFIGELSAEYMKARSLYQEWLNVTNGLKRASPINLRTANKKNIPQPGTSDSNIQQLQIWLNWIKWERENKLMLSEDMLSQRISYVYKQGIQYMIFSAEMWYDYSMYISENSDRQNILYTALLANPDSPSLTFKLSECYELDNDSESVSNCFDKCTQTLLSQYKKIASDVNSGEDNNTEYEQELLYKQREKLTFVFCVYMNTMKRISGLSAARTVFGKCRKLKRILTHDVYVENAYLEFQNQNDYKTAFKVLELGLKYFQNDGVYINKYLDFLIFLNKDSQIKTLFETSVEKVQDLTQLKEIYKKMISYESKFGNLNNVYSLEKRFFERFPQENLIEVFTSRYQIQNSNLIKKLELTYMYNEEEDSYFSSGNGDGHHGSYNMSSSDRKRLMEETGNNGNFSNKKFKRDSELPTEVLDLLSVIPKRQYFNTNLLDAQKLVNFLNDQVEIPTVESTKSG |  | binds | binds |
